In ChEMBL document CHEMBL4888484, “Replenishing the malaria drug discovery pipeline: Screening and hit evaluation of the MMV Hit Generation Library 1 (HGL1) against asexual blood stage Plasmodium falciparum ,using a nano luciferase reporter read-out” (2022):
Hit rate of the full screen: of about 150,000 compounds, about 540 (0.36%) showed an effect of 50% or more. Some of the results follow.

Tested on: Plasmodium falciparum
Assay: Primary screen in NF54 nanoGlo assay, in single point, at 2uM, 72h; a lower Z score goes with more inhibition
Format: functional, Erythrocyte
Conditions: timepoint 72 hour

SMILES	% Inhibition	Z score
Cc1cccc(-c2nc(CN3C[C@H]4CC[C@H]3C4)c(C)o2)c1	-11%	1.03
Cc1cc([C@H](C)NC(=O)c2cnccn2)c(C)s1	-4%	0.59
CC(Cc1cccs1)NC(=O)C1CCCO1 (stereo not given)	-5%	0.85
OC1(C#CCN2CCCCC2)c2ccccc2C2CCCC21 (stereo not given)	27%	-3.06
CC(C)(C)OC(=O)NCC=CCNc1ncc(F)cn1	-18%	3.38
CCC(=O)N(CCC(c1ccccc1OC)C1CCOC(C)(C)C1)Cc1ccc(OC)cc1 (stereo not given)	-16%	2.1
Cc1cnccc1CN1CCN(c2cc(=O)[nH]c(N)n2)CC1	-4%	0.77
Cc1cnc(C)c(N2CCC3(CC2)c2nc[nH]c2CCN3C(=O)C2CCC2)n1	-14%	1.36
O=C(Nc1cccc(Cl)c1)c1ccccc1C(=O)Nc1cccc(Cl)c1	-12%	1.64
COCc1cccc(CC(=O)NC2CC(C)(C)C2)c1	2%	-0.25
COc1c(C(=O)N2CC3C4CCC(C4)C3C2)[nH]c(=O)[nH]c1=O (stereo not given)	-9%	1.28
CC(C)c1nc(CCc2cnn(C)c2)n(-c2cccc3cccnc23)n1	-5%	0.71
Cc1nccn1CC1(CNC(=O)c2ccnc(-n3cnnc3)c2)CC1	0%	-0.06
O=C(NCc1ccccc1F)c1nn(-c2ccccc2)c(=O)c2ccccc12	5%	-0.53
Cc1nc(NCCc2[nH]nc3c2CCCC3)c2nc(C)oc2n1	-6%	0.92
Cc1nccc(NC(=O)NCC2CC3C=CC2CC3)n1 (stereo not given)	5%	-0.89
Cc1cccc(OCC(=O)N2CCN(c3cc(C)n4cnnc4n3)CC2)c1	-3%	0.39
CC1CCCN(C(=O)C2CS(=O)(=O)CC2C(F)(F)F)CC1 (stereo not given)	-5%	0.83
O=C(Nc1cnc(N2CCCCCC2)nc1)c1cccc(F)c1	-22%	1.93
O=C(Nc1ccc2cc[nH]c2c1)N[C@H]1CCS(=O)(=O)C1	14%	-1.39
CC1=C(C(=O)N2CCCCC2)[C@H](c2ccncc2)n2ncnc2N1	31%	-3.52
Cc1cc(C(=O)NCc2n[nH]c(=O)[nH]2)ccc1F	-8%	1.33

SMILES	% Inhibition	Z score
COc1ccnc(N2CCN3C(=O)N(C4CCCCC4)C[C@H]3C2)n1	15%	-1.8
Clc1cc(Cl)cc(OCCN2CCN(Cc3ncon3)CC2)c1	33%	-3.69
C[C@H](NC(=O)C1(C#N)CCC1)c1cc2ccccc2o1	5%	-0.76
CC(C)CCc1noc(Cn2nnc3ccccc3c2=O)n1	-14%	2.26
O=C(CCC1CCN(C[C@@H]2CC=CCC2)CC1)N1CCc2ccccc2C1	-5%	0.64
COCc1nc([C@@H]2CCCCCN2C(=O)c2ccc(N(C)C)nc2)no1	-3%	0.34
CN(Cc1ccccc1)[C@H]1CCCN(C(=O)c2n[nH]c(=O)c3ccccc23)C1	1%	-0.08
O[C@@H]1C[C@@H](c2nc(Cc3ccccc3)no2)N(C2CCCCC2)C1	17%	-1.94
Cc1nc(CN(C)OCc2ccccc2)cs1	-6%	0.57
Cc1ccc(NC(=O)CN2C[C@@H]3CCS(=O)(=O)[C@@H]3C2)c(C)c1	6%	-0.93
CC(C)C1CN(C(=O)C2CC23CC3)CCCO1 (stereo not given)	4%	-0.49
CC1=NN(C(=O)C(Cc2ccccc2)NC(=O)c2ccccc2)C(C)(O)C1 (stereo not given)	10%	-1.43
Cc1ccc(CNC(=O)NC[C@H]2CCCO2)s1	-14%	2.54
CC1(C)CC(NC2CCOC2)c2ccccc21 (stereo not given)	-8%	1.18
Cc1cc(C)cc(N(C)S(=O)(=O)c2ccsc2-c2nc(-c3ccc(C(F)(F)F)cc3)no2)c1	-14%	2.01
Cn1cc(CCC(=O)NC[C@@H]2CCCN3CCCC[C@H]23)c2ccccc21	-6%	0.75
O=C(CCc1cn[nH]c1)N1CCN(c2noc(C3CC3)n2)C[C@@H](O)C1	1%	-0.16
O=C(CCN1CCC[C@H]1c1ccc[nH]1)NCc1ccccc1Cl	4%	-0.4
CCn1cc(NC(=O)C2CCN(c3ncnc4nc[nH]c34)CC2)cn1	-2%	0.21
Cc1conc1CNc1ncnc2c1cnn2C(C)(C)C	35%	-3.99
Cc1ccc([C@H]2CCN(C(=O)NC3CCN(C4CC4)CC3)C2)c(C)c1	1%	-0.07
Cn1nccc1-c1cncc(CNC(=O)c2ccccc2)c1	12%	-1.55

SMILES	% Inhibition	Z score
CC1CCC(C(=O)NC2CCN(C(=O)c3cc(-c4ccccc4)n[nH]3)CC2)CC1 (stereo not given)	-10%	1.18
COc1ccc(Cl)cc1Cc1noc([C@H]2CCOC2)n1	-4%	0.63
Cc1cnc(NC(=O)CCNC(=O)C2CCCC2)s1	3%	-0.29
O=C(NC(c1ccc(F)cc1)[C@H]1C[C@@H](O)C1)c1ccco1 (stereo not given in full)	-4%	0.72
O=C(Nc1ccccc1)N1CC[C@H](Cc2nnc(-c3cccnc3)[nH]2)C1	4%	-0.67
CCn1ccnc1[C@H]1OCCC[C@@H]1NC(=O)C1Cc2ccccc2O1 (stereo not given in full)	2%	-0.27
Cc1ccccc1C1CN(C(=O)CC2(N)CCC2)C(C)CO1 (stereo not given)	-3%	0.38
Cc1ncc(-c2ccccc2)cc1NC(=O)c1ccc(O)nc1	-4%	0.62
CNC(=O)c1ccc(CN(C)[C@H]2CCN(CC(F)(F)F)C2=O)o1	-3%	0.52
CCOc1ccc(NC(=O)C2CCN(c3cc(=O)n(C)c(=O)n3C)CC2)cc1	-4%	0.69
O=C(c1cnc2[nH]c(=O)[nH]c2c1)N1C2CCC1CC(Cc1ccccc1)C2 (stereo not given)	6%	-0.77
CC(CN1CCCCC1)NC(=O)NC1CCOC2(CCCC2)C1 (stereo not given)	-8%	0.95
CC(NC(c1cccc(C(F)(F)F)c1)C1CC1)c1nnnn1C (stereo not given)	-11%	1.04
CN(C)CCN(C[C@H]1CCCO1)C(=O)c1ccc2cc[nH]c2c1	-8%	1.21
CNC(=O)COc1cccc(S(C)(=O)=O)c1	5%	-0.68
CC1(C)c2ccccc2N2CC(=O)N[C@@]21/C=C/c1ccc(Cl)cc1Cl	-13%	1.67
COc1ccc(CNC2CC(C)(C)OCC2Cc2ccccc2)cc1 (stereo not given)	-8%	1.01
COc1cccc(NC(=O)Cn2c(C(C)C)nc3c(c2=O)CN(Cc2ccccc2)CC3)c1	-3%	0.38
CCOC1CC(O)C12CCN(C(=O)[C@@H](O)Cc1ccccc1)CC2 (stereo not given in full)	-1%	0.12
O=C(C[C@@H]1O[C@H](CNC(=O)NC2CCCCC2)[C@@H](O)[C@H]1O)NCc1cccnc1	25%	-2.8
CCC(NC1CCCc2c1cnn2CC)C(=O)Nc1cc(C)on1 (stereo not given)	-10%	1.11
CCOc1cc(C(=O)N2CCC[C@H](c3n[nH]cc3NS(C)(=O)=O)C2)ccc1C	-16%	1.77

SMILES	% Inhibition	Z score
O=C(Nc1ccc2cccc(Cl)c2n1)c1n[nH]c2ccccc12	16%	-1.9
CC(C)C1(C(=O)N2CC[C@@H](F)C2)COC1	-7%	0.68
O=C(c1cn[nH]c1)N1CCO[C@@H](CC(c2ccccc2)c2ccccc2)C1	-13%	1.99
CC(C)c1nccc(C(=O)N[C@H]2C[C@H]3C(=O)N(C)CC(=O)N3C2)n1	15%	-1.85
COc1ccccc1C1(CNS(=O)(=O)c2cnn(C)c2)CCOCC1	-6%	1.17
O=C(NCCCN1Cc2ccccc2C1)c1cnc(-c2cccnc2)nc1	-13%	2.08
Cc1ccc(C)c(CN(CCc2c[nH]c3ccccc23)Cc2nc(C(=O)NCc3ccco3)co2)c1	0%	0
CN(CCCO)CC(F)(F)c1ccc(F)cc1	-5%	0.73
Cc1cccc(NC(=O)Nc2ccc(N3CCN(C(=O)C4c5ccccc5Oc5ccccc54)CC3)cc2)c1	3%	-0.39
O=C(CCC1CCCC1)Nc1nnc([C@H]2CC(=O)N(c3ccc(F)cc3)C2)o1	-2%	0.3
COc1ccc(CCNc2nc(-c3ccc(OC)cc3)c3c(N)n(-c4ccc(OC)cc4)nc3n2)cc1	-13%	2.28
CC(C)c1nccn1C[C@@H](C#N)CCC#N	-14%	2.72
Cc1ccc2[nH]c(N3CCC(C(=O)NC4CCCCCCC4)CC3)nc2c1	3%	-0.41
CC(C)C(=O)Nc1cnn([C@H]2CCOC2)c1	10%	-1.24
CCc1cc2c3c([nH]c2cc1S(=O)(=O)N(CC)c1ccc(OC)cc1)CCCC3=O	-20%	3.84
CCN[C@H](c1cccnc1)c1ccc(Cl)s1	4%	-0.81
Cc1cc(C(=O)N2CCC(c3nc4ccccc4o3)CC2)cs1	-7%	1.17
CCOc1ccccc1NC(=O)Cn1ncc(-c2ccc(OC)cc2)nc1=O	2%	-0.24
CCCc1nc2cc(CCC(=O)Nc3ccc(Br)cc3F)ccc2[nH]1	-2%	0.32
